Results as given in the RNAGym collection of RNA variant scans (doi:10.7554/elife.90254).
The source gives no read counts; variants with many changes may rest on few reads.

B1: LINE1-mini (parent)
chain: GGCAGAGCUCAACACAGCGUGGCAAAGUGGCUGUGGCUAGACUGCC

Variants of: B1
Experiment: self-cleavage, relative activity (ratio to wild type); higher = more cleavage; in vitro, sequencing; the parent is a self-cleaving ribozyme
Variant GGCAGAGCUCAACACAGCUUGGCAAAGUGGCUGUGGCUAGACUCCG [G19U G44C C46G] has a self-cleavage of 0.07. GGCAGAGCUCAACACAGCGAGCCAAAGUGGCUGUGGCAAGACUGCC [U20A G22C U38A] gave a self-cleavage of 0.77. With GGCAGAGCUCAACACAGCGAGGCAAAGUGGCUGUGGAUAGACUUCC [U20A C37A G44U] the self-cleavage was 0.04. GGCAGAGCUCAACACAGCGAGGCGAAUUAGCUGUGGCUAGACUGCC [U20A A24G G27U G29A] showed a self-cleavage of 1.41. GGCAGAGCUCAACACAGCGAGGCAAAUUGACUGCGGCCAGUCUGUC [U20A G27U G30A U34C U38C A41U C45U] showed a self-cleavage of 0.05. For GGCAGAGCUCAACACAGCUUGGCAAAGUGGCUGUGGUUAUACUGCC [G19U C37U G40U], the self-cleavage was 0.04. In the case of GGCAGAGCUCAACACAGCUUGGCAAAGUGGCUUUGGCUAGACUUCC [G19U G33U G44U], the self-cleavage is reported as 0.04. GGCAGAGCUCAACACAGCGAGGCAAAGUUGCUGUGGAUAGACGACC [U20A G29U C37A U43G G44A] showed a self-cleavage of 0. With GGCAGAGCUCAACACAGCGAGGCAAAGUCGCUGUGGCUAGACCGCC [U20A G29C U43C] the self-cleavage was 0.1. Work on GGCAGAGCUCAACACAGCGCGGCAAAGUGGUUGUGGCUAGAAUGAC [U20C C31U C42A C45A] yielded a self-cleavage of 0.04. In the case of GGCAGAGCUCAACACAGCUUGGCAAAGUGGCUGUCGCUAGACUGGC [G19U G35C C45G], the self-cleavage is reported as 0.12. For GGCAGAGCUCAACACAGCGAGCCAAAGGGGCUGUGGCUAGACUGCC [U20A G22C U28G], the self-cleavage was 0.15. GGCAGAGCUCAACACAGCGCGGUGAGAUGGCUUUGGCUAGACUGCC [U20C C23U A24G A26G G27A G33U] gave a self-cleavage of 0.06. Variant GGCAGAGCUCAACACAGCUUGGCAAAGUGGCUUUGGUUAGACUGCG [G19U G33U C37U C46G] has a self-cleavage of 0.06. Variant GGCAGAGCUCAACACAGCGAGGCCAAGUGGCUGUAGCUAGACUGCC [U20A A24C G35A] has a self-cleavage of 0.07. For GGCAGAGCUCAACACAGCGAGGCAAAGUAACUGUGGCUAGACCGUC [U20A G29A G30A U43C C45U], the self-cleavage was 0.03. GGCAGAGCUCAACACAGCUUUGCAAAGCGGCUGUGGCUAGACUGCC [G19U G21U U28C] showed a self-cleavage of 0.24. Variant GGCAGAGCUCAACACAGCUUCGCAAAGUGGCGGCGGCUAGACUGCC [G19U G21C U32G U34C] has a self-cleavage of 0.13. With GGCAGAGCUCAACACAGCGAGGCAAAGUGGCUGAGGCUAGAGUGCC [U20A U34A C42G] the self-cleavage was 0.05. Variant GGCAGAGCUCAACACAGCGCGACAUAGUGGCUGUGGCUAGACUGCC [U20C G22A A25U] has a self-cleavage of 0.54. With GGCAGAGCUCAACACAGCGCGGCAAAGUGGCUGUGGCUAGCCCGCC [U20C A41C U43C] the self-cleavage was 0.03. GGCAGAGCUCAACACAGCUUGUCAAAGUGUCUGUGGCUAGACAGCC [G19U G22U G30U U43A] showed a self-cleavage of 0.31. GGCAGAGCUCAACACAGCGAGGCAAGGGGGCUGUGGCUAGACUUCC [U20A A26G U28G G44U] gave a self-cleavage of 0.01. In the case of GGCAGAGCUCAACACAGCGAGGCGAAGUGGCUCUGGCUAGACUGCC [U20A A24G G33C], the self-cleavage is reported as 0.05. With GGCAGAGCUCAACACAGCUUGGCAAAGUGGCUGUGGCUAGACGGAC [G19U U43G C45A] the self-cleavage was 0.03. With GGCAGAGCUCAACACAGCGAGGCAAAGUGGCUGUGCCUUGACUGCC [U20A G36C A39U] the self-cleavage was 0.04. GGCAGAGCUCAACACAGCGAGGCAAAGUGGCGGUGGCGAGACUGCC [U20A U32G U38G] showed a self-cleavage of 0.03. Variant GGCAGAGCUCAACACAGCGAGGCAAGGUGGCUGUGGCAAGCCUGCC [U20A A26G U38A A41C] has a self-cleavage of 0.01. With GGCAGAGCUCAACACAGCGCGGCAGAGUGACUGUGGCUAGACUGCC [U20C A25G G30A] the self-cleavage was 0.16. GGCAGAGCUCAACACAGCGAGGCAAAGGGGCAGUGGCUAGACGCCC [U20A U28G U32A U43G G44C] showed a self-cleavage of 0.01. In the case of GGCAGAGCUCAACACAGCGAGGCAAAGUUGCUGUUGCUAGACUGCC [U20A G29U G35U], the self-cleavage is reported as 0.04. GGCAGAGCUCAACACAGCGCGGAAAAGUAUUUGUGACUAGGCUGCC [U20C C23A G29A G30U C31U G36A A41G] showed a self-cleavage of 0.03. GGCAGAGCUCAACACAGCGAGGCAAAGUGGCUGGCGCUAGACCGCC [U20A U34G G35C U43C] showed a self-cleavage of 0.02. With GGCAGAGCUCAACACAGCGAGGCAAAGUGGCUGUGAAUAGACUGCC [U20A G36A C37A] the self-cleavage was 0.08. In the case of GGCAGAGCUCAACACAGCGAGGCAAAGUGGCUGUGAUUAGACUGCC [U20A G36A C37U], the self-cleavage is reported as 0.12. GGCAGAGCUCAACACAGCUUAGCAAAGUGGCUGUGGGUCGACUGCC [G19U G21A C37G A39C] gave a self-cleavage of 0.04. With GGCAGAGCUCAACACAGCGAGGUAAAGUGGCUGGGGCUAGACUGCU [U20A C23U U34G C46U] the self-cleavage was 0.44. For GGCAGAGCUCAACACAGCUCGGCAAAGUGGCUAUGGCUAGACUGCC [G19U U20C G33A], the self-cleavage was 0.03. GGCAGAGCUCAACACAGCUUGGCAAUGUGGCCGUGGCUAGACUGCC [G19U A26U U32C] showed a self-cleavage of 0.06. Variant GGCAGAGCUCAACACAGCUGGGCAUAGUGGCUGUGGCUAGACUGCC [G19U U20G A25U] has a self-cleavage of 0.6. Work on GGCAGAGCUCAACACAGCGAGGCAAAGCGGCUGUGGCUGGAAUGCC [U20A U28C A39G C42A] yielded a self-cleavage of 0.04. For GGCAGAGCUCAACACAGCUUGGCAAAGUGGCUGUAGCUAGACAGCC [G19U G35A U43A], the self-cleavage was 0.08. In the case of GGCAGAGCUCAACACAGCGCGGCAAUGUGGCUGAGGAUAGACUGCC [U20C A26U U34A C37A], the self-cleavage is reported as 0.02. Variant GGCAGAGCUCAACACAGCGCGACAUAGUGGCGGUGGCUAGACUGCC [U20C G22A A25U U32G] has a self-cleavage of 0.19. For GGCAGAGCUCAACACAGCUUGGCAAAGUGUCUGUGGCUAGACAGCC [G19U G30U U43A], the self-cleavage was 0.22. With GGCAGAGCUCAACACAGCGCGGCGAAGUGGCUGCGGGUAGACUGCC [U20C A24G U34C C37G] the self-cleavage was 0.04. Work on GGCAGAGCUCAACACAGCGAGGCAAAGUGGUUGUUGCGAGACUUCC [U20A C31U G35U U38G G44U] yielded a self-cleavage of 0.03. For GGCAGAGCUCAACACAGCGAGCCAAAGAGGCGGGGGCUAGACUGCC [U20A G22C U28A U32G U34G], the self-cleavage was 0.03. In the case of GGCAGAGCUCAACACAGCUUGGCAAAGUGGCUGUGGUUAGGCUGCU [G19U C37U A41G C46U], the self-cleavage is reported as 0.04. Variant GGCAGAGCUCAACACAGCUUAGCAAAGUGGCUGUGGCUUGUCUGCC [G19U G21A A39U A41U] has a self-cleavage of 0.73. Work on GGCAGAGCUCAACACAGCGAGGCGCAGUGGCUGUGGCUAGACUGCC [U20A A24G A25C] yielded a self-cleavage of 0.42. For GGCAGAGCUCAACACAGCGAGGCAAAGUGGUUGUGGCUGGACUGCC [U20A C31U A39G], the self-cleavage was 0.02. GGCAGAGCUCAACACAGCGAGGCAGAGUGGCUGUGGCUGGUCUGCC [U20A A25G A39G A41U] gave a self-cleavage of 0.05. Variant GGCAGAGCUCAACACAGCUUGGCAAAGUGGCAAUGGCUAGACUCAC [G19U U32A G33A G44C C45A] has a self-cleavage of 0.02. Variant GGCAGAGCUCAACACAGCUUGCCAAAGUGACUGUGGCUAGACUGCC [G19U G22C G30A] has a self-cleavage of 2.61. Work on GGCAGAGCUCAACACAGCGCGGUAAAGUGGCUGUGGCUAAACUGCC [U20C C23U G40A] yielded a self-cleavage of 0.06.
